Test results as given in the supplement of paper PMC3334620.
The full ranking holds about 33,000 sequences; the median of “E-score (-0.5 to 0.5)” is about -0.035, and the highest 2% start at about 0.34. This is one part of the list.

What follows are sequences tested against T1, Mot3 (UniProt P54785) (assay: PBM E-score (8-mer binding enrichment) (E-score (-0.5 to 0.5)); higher = stronger / more preferred TF binding; most listed sequences are background and not binding sites). Conditions: protein concentration: 200 nM; construct: GST-full length.
T1 sequence: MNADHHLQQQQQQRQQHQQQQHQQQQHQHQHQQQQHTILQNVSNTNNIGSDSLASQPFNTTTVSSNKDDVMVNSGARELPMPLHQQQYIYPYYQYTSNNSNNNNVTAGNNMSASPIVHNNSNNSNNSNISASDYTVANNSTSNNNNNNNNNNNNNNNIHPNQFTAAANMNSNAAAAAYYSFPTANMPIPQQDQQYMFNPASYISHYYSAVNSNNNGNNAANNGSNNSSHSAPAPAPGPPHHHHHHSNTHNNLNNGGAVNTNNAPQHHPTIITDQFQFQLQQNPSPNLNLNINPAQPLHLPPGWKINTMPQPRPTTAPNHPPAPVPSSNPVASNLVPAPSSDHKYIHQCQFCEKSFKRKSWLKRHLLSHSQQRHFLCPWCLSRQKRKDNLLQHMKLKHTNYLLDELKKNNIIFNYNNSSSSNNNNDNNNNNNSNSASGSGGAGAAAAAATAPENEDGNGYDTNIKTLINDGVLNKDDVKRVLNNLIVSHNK
How it was run: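 GST-tagged yeast TFs (full-length or DNA-binding domain) were made by PURExpress in vitro transcription/translation and applied at about 100-200 nM to universal all-10-mer Agilent arrays. The arrays were made double-stranded by primer extension, on fresh or once-stripped slides. Bound protein was detected with fluorescent anti-GST, and scans were normalised with masliner. Each ungapped eight-base word, pooled with its reverse complement, received an E-score (modified Wilcoxon-Mann-Whitney statistic) from the Universal PBM Analysis Suite.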

Sequence | PBM E-score
AGCTGCCA | -0.175
CAAACTAC | 0.05
ATTTTCAA | 0.12
ACATAGAA | 0.246
CCAGATCG | -0.125
CCCACTTA | 0.00679
CGCAACAG | 0.0587
TAAAGGTA | 0.382
CACTAAAG | 0.0255
CTTTGATC | -0.148
ATTACAAC | 0.286
ATACCTCA | -0.146
CAGCGGAC | -0.264
AAGACAAA | 0.0527
CAGCCCTG | -0.191
ACTTCCTC | -0.0876
CTGGATTC | -0.137
AATCGACA | 0.201
ATTGCGAG | -0.222
TCTGGGAA | -0.243
AGCTACCT | 0.0903
TATTTTCA | 0.117
ACTCGTCG | -0.0932
CTGCTCCA | -0.0945
AGCTTTTG | 0.101

Sequence | PBM E-score
TCGTCGAA | 0.125
GTTCTAGA | -0.0908
GCCACCAA | -0.158
CACACCAA | 0.104
ATGTCATA | 0.172
ACTCAGGG | -0.143
CGAGCGCG | -0.144
GGACACAC | -0.079
CACTAGGG | -0.0853
AGTACAAC | -0.0278
CAATGCGG | 0.0422
AAGTATAG | -0.0363
CCTAGTTC | 0.0417
AGCCGCGC | -0.137
AGAGCGTG | 0.0559
CCATGACC | -0.28
AATGAAGA | -0.05
CCTTCCAG | 0.0889
GGCCCGCA | -0.212
AGATGCCA | -0.236
ATGCGAAA | 0.0635
CTTATCTA | 0.0435
AGGTGGCC | -0.221
CACAAGGG | 0.0627
ACACAGGT | 0.222

Sequence | PBM E-score
AGTGGGAC | -0.0842
ATAAGTAG | -0.00736
GAGTCTTA | -0.248
GGTCTCCA | -0.104
CCTTGACG | -0.13
AATTACGA | 0.298
AGCGTAAT | 0.18
TAAACCAA | 0.13
ATTTACTC | 0.159
TCCAGTCA | -0.208
GATTTAGC | -0.158
AGGATGTG | -0.0943
ACGGGCCG | -0.115
CGGCTGCC | 0.00053
AGAACATG | 0.259
GACGTCCC | -0.149
CCAACGGG | -0.172
CGGTATCA | 0.029
CATGTATC | 0.277
GCCCTTCA | -0.14
TGCTTAAA | 0.0785
AGGTCGGA | -0.182
AGTCTTCA | -0.171
AGTAGGGG | -0.0677
AAAGTTGT | 0.114

Sequence | PBM E-score
AACGAGGC | -0.0362
ATCCACAG | -0.0584
ATTATGAG | -0.081
CGAACGGC | -0.283
ATTAGACG | -0.0422
ATTGAATA | 0.199
GAGCAACC | -0.0771
GGCTGTGA | 0.0105
GGAGACCC | -0.0421
CTTCGGCC | -0.183
ATAGACAT | 0.0987
GCATGACA | 0.116
CTGCGTTA | 0.141
AACCAAAT | 0.127
GATTGCCA | -0.37
CTCACTGA | -0.0848
CACCGGCC | -0.0883
GGGCAGAC | -0.368
ACTTTCGA | -0.149
GCGTACGC | -0.129
AAAAGTTA | 0.197
GGCAGTGA | -0.214
CAAAAGAG | -0.00708
AATCGGCA | -0.192
TCTTTCCA | -0.235

Sequence | PBM E-score
CCAGCCCG | -0.349
CCTACAGG | 0.164
ATAACAAG | 0.301
AAAGGTAA | 0.324
AATTCAAC | 0.0932
CGATGGAC | -0.0128
ATATTTGG | 0.0141
GACTACGC | -0.0095
ACTATCCG | -0.0827
CTCCGGAA | -0.144
AGGATCTA | -0.245
GGAAAAGA | -0.0156
ATTACGGA | 0.0377
AATCCCGT | 0.0741
GATGTAAA | 0.35
TCGTAACA | 0.127
GGCCGCAC | -0.222
ATGGAACA | -0.111
AGGGAAAC | -0.154
AGAGGTAA | -0.019
GATCCGAA | -0.272
TATGATCA | 0.00091
CGTTAAAC | 0.194
CACTAAAA | 0.189
CCCTTAGC | -0.281

Sequence | PBM E-score
AACGAAGA | -0.00236
CTCCTTGC | -0.0223
GGCCGAAA | -0.186
AGAATGGG | -0.245
AAACGGTC | -0.13
CCTATGGC | -0.0395
ACTCAGGA | 0.0148
GCCGCGCA | -0.26
AAAACGTG | 0.156
AAGATCGG | -0.159
GCGGTAAC | 0.063
ATGGGTAA | 0.0417
GTGGCAAC | -0.0139
CTTACTCC | 0.0194
ACTCCCCA | -0.173
AGTGTCTA | 0.0204
CCGCCCCA | -0.131
CGTAATCA | 0.285
ACTTACAA | 0.22
AAGAGTAA | 0.185
ATTCCTCG | -0.0566
AACCGTAT | -0.187
CTATAGTC | 0.154
CAACACCG | -0.135
AGGCGACT | 0.00152

Sequence | PBM E-score
CCTAAGGA | 0.0581
ACTTCGGA | -0.0776
AGAAAGCG | 0.158
CCCTATGC | -0.0966
AAAAGGAC | 0.171
AACCACTG | -0.13
GAGCCCGA | -0.157
ACCGCAGT | -0.00425
ACCGACCC | -0.256
CCCTCTAC | -0.00576
AATGATTC | -0.203
AGCCCGCA | -0.199
ACCTGAGA | 0.172
TCGGAGCA | -0.297
CCGAACCA | -0.223
AAATGCCG | 0.0422
AAGCTGAC | -0.182
CCGGCATC | -0.253
ATTGAAGG | 0.192
CCTGTGAC | 0.166
CAAACGGC | -0.245
CCTTCGTC | 0.012
